Legend:
Assay type in all cases: biochemical
EV-71 RdRp = tested on: EV-71 RdRp
SARS-CoV-2 RdRp = SARS-CoV-2 RdRp (Severe acute respiratory syndrome coronavirus 2, UniProt P0DTD1)
HRV-16 RdRp = HRV-16 RdRp (Human rhinovirus 16, UniProt Q82122)

**Q.** Which results are given for `N#C[C@@]1(c2ccc3c(N)ncnn23)O[C@H](COP(=O)(O)OP(=O)(O)OP(=O)(O)O)[C@@H](O)[C@H]1O` [GS-443902]?
**A.** Inhibition (fold) of subsequent nucleotide incorporation, ratio of Vmax/Km vs AMP-terminated primer (EV-71 RdRp): 4.50 fold; Inhibition (fold) of subsequent nucleotide incorporation, ratio of Vmax/Km vs AMP-terminated primer (SARS-CoV-2 RdRp): 0.88 fold; Inhibition (fold) of subsequent nucleotide incorporation, ratio of Vmax/Km vs AMP-terminated primer (HRV-16 RdRp): 2.81 fold

**Q.** `N#C[C@]1(COP(=O)(O)OP(=O)(O)OP(=O)(O)O)O[C@@H](c2ccc3c(N)ncnn23)[C@H](O)[C@@H]1O` [GS-646939] was tested. Which “Inhibition (fold) of subsequent nucleotide incorporation, ratio of Vmax/Km vs AMP-terminated primer” value (EV-71 RdRp) did it give?
**A.** The value was 4,642 fold.

**Q.** And the “Inhibition (fold) of subsequent nucleotide incorporation, ratio of Vmax/Km vs AMP-terminated primer” value (SARS-CoV-2 RdRp)?
**A.** The value was 2542 fold.

**Q.** What about the “Inhibition (fold) of subsequent nucleotide incorporation, ratio of Vmax/Km vs AMP-terminated primer” value (HRV-16 RdRp) of the same compound?
**A.** Its value is 751 fold.

From publication PMC11345399 (The Journal of Biological Chemistry, 2024)
